Measured values: the supplement of paper PMC3334620
The full ranking holds about 33,000 sequences; the median of “E-score (-0.5 to 0.5)” is about -0.011, and the highest 2% start at about 0.28. Some of the results follow.

target: T1, Gcr1 (UniProt P07261); assay: PBM E-score (8-mer binding enrichment) (E-score (-0.5 to 0.5)); higher = stronger / more preferred TF binding; most listed sequences are background and not binding sites; details: protein concentration: 100 nM; construct: GST-full length
T1 sequence: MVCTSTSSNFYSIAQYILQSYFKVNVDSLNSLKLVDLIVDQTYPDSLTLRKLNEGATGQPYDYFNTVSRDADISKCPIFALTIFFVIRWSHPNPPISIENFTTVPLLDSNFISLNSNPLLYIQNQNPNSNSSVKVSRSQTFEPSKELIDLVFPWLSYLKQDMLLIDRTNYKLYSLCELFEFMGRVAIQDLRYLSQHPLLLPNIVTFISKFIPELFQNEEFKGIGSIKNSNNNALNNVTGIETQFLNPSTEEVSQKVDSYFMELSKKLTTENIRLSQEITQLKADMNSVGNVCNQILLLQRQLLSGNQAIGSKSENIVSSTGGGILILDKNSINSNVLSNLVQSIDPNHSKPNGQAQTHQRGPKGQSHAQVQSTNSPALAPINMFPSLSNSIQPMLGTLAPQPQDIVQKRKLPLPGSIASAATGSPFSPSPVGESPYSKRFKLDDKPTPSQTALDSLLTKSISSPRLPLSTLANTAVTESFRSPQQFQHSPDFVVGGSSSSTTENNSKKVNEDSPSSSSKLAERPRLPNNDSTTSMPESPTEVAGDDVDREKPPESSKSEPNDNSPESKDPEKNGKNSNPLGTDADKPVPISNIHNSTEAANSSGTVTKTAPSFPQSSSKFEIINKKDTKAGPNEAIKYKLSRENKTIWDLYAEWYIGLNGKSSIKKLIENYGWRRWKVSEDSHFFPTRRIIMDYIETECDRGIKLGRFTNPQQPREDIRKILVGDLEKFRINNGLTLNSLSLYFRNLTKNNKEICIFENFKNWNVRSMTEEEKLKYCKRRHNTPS
In short: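 Universal all-10-mer Agilent arrays, fresh or stripped once, were converted to double-stranded form by primer extension. GST-tagged yeast transcription factors from PURExpress in vitro transcription/translation, full-length or DNA-binding domain only, were applied at about 100-200 nM and detected with fluorescent anti-GST. After masliner normalisation, the Universal PBM Analysis Suite scored each ungapped eight-base word together with its reverse complement by E-score.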

Row | Sequence | PBM E-score
1 | GCTAGCGA | -0.0519
2 | ACGGAGAC | -0.0545
3 | AAGTTATA | 0.261
4 | GGCGTATA | 0.195
5 | ACCGAACC | -0.0945
6 | ATGCTAGA | 0.201
7 | TCGCGCCA | -0.185
8 | ATTACTAC | -0.191
9 | AGACCTGG | -0.216
10 | TCATTAGA | 0.102
11 | AGTTTCGA | -0.151
12 | CCATTGGC | 0.0633
13 | ATTAGCAG | 0.177
14 | CGTAGGAA | 0.0528
15 | ACAGCCGT | -0.317
16 | CATCCTGG | 0.213
17 | TCTAGTAA | 0.0813
18 | ATTACCGG | 0.173
19 | ATGGATGG | -0.034
20 | CGGCTCGA | -0.121
21 | AACCCCCG | -0.0829
22 | CTGGAAGA | 0.0722
23 | ATTTTTCC | -0.0348
24 | AACTGCGA | 0.0401
25 | AACCCCAG | 0.0204

Row | Sequence | PBM E-score
26 | AGAAAGAA | -0.123
27 | GCTGCTGA | 0.199
28 | AGGTGCGA | -0.0572
29 | CAAGCTGG | -0.0711
30 | AAACCGGG | -0.0099
31 | CCAACGCC | -0.205
32 | ATTGCAAC | 0.0417
33 | TCATTCGA | -0.0779
34 | TAGATAGA | -0.135
35 | GCGCGTAA | 0.197
36 | ATTTAGAC | 0.139
37 | CTTTTTGC | 0.0974
38 | AGATGTAG | -0.109
39 | TACTGATA | 0.273
40 | AGTCACAC | -0.15
41 | AGGGATAG | -0.184
42 | AGATCGGC | -0.098
43 | CTAGTTCA | 0.132
44 | CTGACCGA | -0.343
45 | GCTCTCCA | -0.191
46 | AACTTTCA | 0.0331
47 | AAAGGCCT | -0.292
48 | GCAGCGTA | 0.186
49 | AAAGAACC | 0.167
50 | AGGACACG | -0.195

Row | Sequence | PBM E-score
51 | AATTATCA | 0.149
52 | CGATTCAC | 0.131
53 | AAGAAGCG | 0.0955
54 | AGTCTTGA | -0.162
55 | AACTGGAC | 0.198
56 | ACTGGGGA | 0.0252
57 | ATACGCAA | 0.186
58 | CCGGGCTC | 0.12
59 | ACGCCAAG | 0.0396
60 | AATAAGCA | -0.0342
61 | GAACGAGC | -0.155
62 | AGGGTCGC | -0.074
63 | GACTGCGA | -0.173
64 | AACCTCCA | -0.163
65 | GATGGTGA | -0.161
66 | CCCACCAC | 0.0761
67 | GCGGGAAC | 0.00746
68 | ATGCCTAA | 0.0538
69 | GAGTGACA | -0.0369
70 | GAGGACTA | -0.125
71 | ACCGCCTG | -0.0849
72 | ATCTACCA | -0.103
73 | CGCTGGAG | 0.202
74 | CACGAACG | -0.0533
75 | CTAACGTC | -0.0629

Row | Sequence | PBM E-score
76 | CACGATTA | -0.0818
77 | ATCCTTCG | -0.0408
78 | GGTGGGTA | -0.0975
79 | CGCGACCA | 0.00425
80 | AAAACTGA | -0.00516
81 | GATGGCAC | -0.0293
82 | AGTCTGAC | -0.0237
83 | GAGTCCAC | 0.257
84 | CTAACGCA | -0.0647
85 | CCGCAAGG | -0.134
86 | ATTGCGGA | 0.046
87 | TCAGCGAA | -0.129
88 | CAGCTTCA | 0.0949
89 | ATTCTCCG | -0.196
90 | AAACACGA | 0.158
91 | AGATTATA | 0.0894
92 | CACACGAG | -0.111
93 | ATTTTGTA | 0.0397
94 | CGTAGCGA | -0.0909
95 | ACTCGAAT | 0.0813
96 | TTATCAAA | 0.114
97 | GCGCTACC | 0.0508
98 | AAGAAGCA | 0.165
99 | AAATGGAA | 0.239
100 | ATTTAATA | 0.242

Row | Sequence | PBM E-score
101 | AAGACGCT | 0.218
102 | TATGAACA | 0.0957
103 | GCGAGGCA | -0.15
104 | CAGGGCTC | -0.0457
105 | CACAAAAG | 0.0558
106 | AGTAATAT | 0.224
107 | CTCAGACC | -0.0702
108 | GTGAGGTA | -0.282
109 | CAGCCACC | 0.123
110 | CGAGAAAA | 0.0592
111 | CTAATCGC | -0.0339
112 | GACAATAC | -0.0695
113 | CTGCAATC | -0.023
114 | ATCCGTAG | 0.068
115 | TAAGATGA | -0.0509
116 | CTACAGTA | -0.0972
117 | CCTCGACA | -0.139
118 | CTGTCAGA | -0.0471
119 | AGCGTTAC | -0.183
120 | GGAAATAC | 0.17
121 | ATGGAGAA | 0.0558
122 | AGAACGGA | 0.0749
123 | AGTCCGAC | -0.091
124 | CACCGTAA | 0.00054
125 | ATATAGAC | 0.0385

Row | Sequence | PBM E-score
126 | ACGCAACG | -0.0668
127 | CCCCAGAC | 0.0344
128 | CATCTCTC | -0.127
129 | TCACTGAA | 0.075
130 | AAAACTCG | 0.019
131 | ATTAGAGG | 0.134
132 | ATTCTTAC | 0.0639
133 | CCCAGGTC | -0.0783
134 | CCTGCGCC | -0.0142
135 | ACTCAAAA | 0.0458
136 | CACCTCGA | -0.0309
137 | AGTCGTTC | -0.0254
138 | AGATGGAT | -0.0745
139 | CGACGTCC | 0.0613
140 | AGGTGTTA | -0.188
141 | AGACATCA | -0.103
142 | ACTGTCAC | -0.178
143 | CAGGGTTA | -0.061
144 | AACATTGG | -0.02
145 | ATAGCTAC | -0.0591
146 | CCCGTTAA | -0.034
147 | ACAATAAA | -0.118
148 | ACGACGCT | 0.263
149 | GCTCGAGA | -0.166
150 | GCCGTTGA | -0.158

Row | Sequence | PBM E-score
151 | GTTGTACA | 0.0242
152 | GGCCATGA | -0.124
153 | GCTTATGA | -0.198
154 | AGGCATTA | 0.0626
155 | CATCGACG | -0.0993
156 | GGCTGTAA | -0.12
157 | GTAGTGAC | 0.0161
158 | CGCATCCA | 0.323
159 | AAGGGTCG | -0.105
160 | GAGAACGA | -0.0986
161 | AGATCTCA | -0.223
162 | GCTCGATA | -0.0861
163 | CGGGGTCC | -0.0385
164 | TCTGAAGA | -0.0693
165 | ACGCCACC | 0.0273
166 | ATAATTTG | 0.0276
167 | AAACAACA | -0.0653
168 | CGATTATC | -0.0247
169 | AAGTTGTA | 0.181
170 | CCACATCG | 0.0843
171 | CGGGGATA | -0.0309
172 | TCTCTGCA | -0.0968
